This is a noisy data set.
Assay: amyloid nucleation score relative to library mode (yeast Sup35 reporter selection) (log enrichment difference); higher = more amyloid nucleation; sequences are the first 22 residues of the Bri2 peptide extended by up to 12 random residues
Details: random library (experiment): 1;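 active = nucleation score significantly above 0 at FDR 0.05; inactive = not significantly above 0 or absent from output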
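Further: [psi-pin-] Saccharomyces cerevisiae expressing SupN fusions, induced by 100 µM Cu2SO4, selected 7 d at 30 °C without adenine and uracil, scored by deep sequencing of output versus input.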

Sequence | amyloid nucleation score
EASNCFAIRHFENKFAVETLICLLDRYRRRSRML | inactive
EASNCFAIRHFENKFAVETLICAFGGCDSWKRSK | 6
EASNCFAIRHFENKFAVETLICYGLTLQDTKLHL | 5.36
EASNCFAIRHFENKFAVETLICNSTWMRNSEFYG | inactive
EASNCFAIRHFENKFAVETLICWRRVGGTACVER | -0.418
EASNCFAIRHFENKFAVETLICPDWMHLRFETRV | inactive
EASNCFAIRHFENKFAVETLICGSESSVLCFWWV | inactive
EASNCFAIRHFENKFAVETLICPIL | 1.06
EASNCFAIRHFENKFAVETLICMCHVVV | inactive
EASNCFAIRHFENKFAVETLICIMILGKHGMGHR | inactive
EASNCFAIRHFENKFAVETLICVHHPRTKSSLLV | inactive
EASNCFAIRHFENKFAVETLICCMMVTVSAWLSF | 0.498
EASNCFAIRHFENKFAVETLICTAWANPKIFELC | inactive
EASNCFAIRHFENKFAVETLICFFSTRGRYMLVT | inactive
EASNCFAIRHFENKFAVETLICHSDSSYLFCDNR | 1.3
EASNCFAIRHFENKFAVETLICNL | 1.29
EASNCFAIRHFENKFAVETLICYGRIKQRYDQVS | inactive
EASNCFAIRHFENKFAVETLICAFQR | 5.33
EASNCFAIRHFENKFAVETLICKPLSLGHVRYLG | inactive
EASNCFAIRHFENKFAVETLICESEWEPKDSVWI | inactive
EASNCFAIRHFENKFAVETLICMRFHATGRRGWC | 5.68
EASNCFAIRHFENKFAVETLICRL | inactive
EASNCFAIRHFENKFAVETLICCSKSSQLVRHRL | inactive
EASNCFAIRHFENKFAVETLICLLVMST | inactive
EASNCFAIRHFENKFAVETLICQTESERTMYGRS | -0.0194

Sequence | amyloid nucleation score
EASNCFAIRHFENKFAVETLICFATHSQ | 5.71
EASNCFAIRHFENKFAVETLICGIYLLM | -0.0385
EASNCFAIRHFENKFAVETLICVSPGRDGNGSAA | inactive
EASNCFAIRHFENKFAVETLICTFALVND | inactive
EASNCFAIRHFENKFAVETLICGEHMNSGMMLEG | inactive
EASNCFAIRHFENKFAVETLICRTSSVMQTIA | inactive
EASNCFAIRHFENKFAVETLICRIGGHKDHVNDA | inactive
EASNCFAIRHFENKFAVETLICCGRPVWGPWRWV | 5.12
EASNCFAIRHFENKFAVETLICCYQNPGVGVVVM | inactive
EASNCFAIRHFENKFAVETLICLMSSPDPLVLER | inactive
EASNCFAIRHFENKFAVETLICPAQSRCQFVVSI | inactive
EASNCFAIRHFENKFAVETLICVCEEPSVDLCFG | inactive
EASNCFAIRHFENKFAVETLICIVGAWKVRCSWS | inactive
EASNCFAIRHFENKFAVETLICNYCRILMGIYRV | inactive
EASNCFAIRHFENKFAVETLICNRRRRQSAGTCK | inactive
EASNCFAIRHFENKFAVETLICRSPRQSSIVPGR | inactive
EASNCFAIRHFENKFAVETLICYGFPKATHHDVW | 2.71
EASNCFAIRHFENKFAVETLICFYKATLQAVESP | inactive
EASNCFAIRHFENKFAVETLICMNRITCVWSGTE | inactive
EASNCFAIRHFENKFAVETLICGLLMSLSFFA | 2.51
EASNCFAIRHFENKFAVETLICAVAL | 0.693
EASNCFAIRHFENKFAVETLICWSFGTKGFTQQT | 2.78
EASNCFAIRHFENKFAVETLICVMYTSDNLAMYT | inactive
EASNCFAIRHFENKFAVETLICELSLSYTSRTLC | -0.239

Same assay, conditions: random library (experiment): 2

Sequence | amyloid nucleation score
EASNCFAIRHFENKFAVETLICNRLYFYPYNWFS | inactive
EASNCFAIRHFENKFAVETLICANMCSYFWFEVT | 6.57
EASNCFAIRHFENKFAVETLICFTSHLNNARHGL | 3.87
EASNCFAIRHFENKFAVETLICVITQHSLLALWG | inactive
EASNCFAIRHFENKFAVETLICYLSCFVIFSFAY | inactive
EASNCFAIRHFENKFAVETLICTVMEPFT | inactive
EASNCFAIRHFENKFAVETLICCTTRRESTFSAE | 5.29
EASNCFAIRHFENKFAVETLICALLYRMYVMYSL | inactive
EASNCFAIRHFENKFAVETLICWFFCHSTLVCMD | inactive
EASNCFAIRHFENKFAVETLICWFGFHVSYIRHL | -0.113
EASNCFAIRHFENKFAVETLICLGEYVPCGRSIG | 1.96
EASNCFAIRHFENKFAVETLICDELFKTCDIFYT | 2.26
EASNCFAIRHFENKFAVETLICDSWKILGALRMI | inactive
EASNCFAIRHFENKFAVETLICVSEGGAVPNGLG | -0.0198
EASNCFAIRHFENKFAVETLICLTLGFFRVWMIQ | inactive
EASNCFAIRHFENKFAVETLICHFLDNHLVMVMW | inactive
EASNCFAIRHFENKFAVETLICPAAHMWRLKSEV | inactive
EASNCFAIRHFENKFAVETLICRMCDNCRMGVAC | inactive
EASNCFAIRHFENKFAVETLICIFAHCYIASVSS | inactive
EASNCFAIRHFENKFAVETLICIRESRYVQGRVY | inactive

Sequence | amyloid nucleation score
EASNCFAIRHFENKFAVETLICICPGSLEDLCVG | 5.47
EASNCFAIRHFENKFAVETLICINRLFLSFVSVC | inactive
EASNCFAIRHFENKFAVETLICYLRKPVHVGDFW | 1.34
EASNCFAIRHFENKFAVETLICQFVLVL | inactive
EASNCFAIRHFENKFAVETLICLLRLIRTGRRGR | 3.16
EASNCFAIRHFENKFAVETLICIYSALHTTWTFW | inactive
EASNCFAIRHFENKFAVETLICAQLLISFNVQSG | inactive
EASNCFAIRHFENKFAVETLICMNTSIFDSVLFM | 6.86
EASNCFAIRHFENKFAVETLICNHAYKDCTWTKS | 4.84
EASNCFAIRHFENKFAVETLICQLWYMWRVMFKV | inactive
EASNCFAIRHFENKFAVETLICYSD | inactive
EASNCFAIRHFENKFAVETLICRVSVRVHWFYRT | 1.87
EASNCFAIRHFENKFAVETLICHNVEVS | -0.0677
EASNCFAIRHFENKFAVETLICAYWSGLCAIRS | 0
EASNCFAIRHFENKFAVETLICMNVICTVRHRRK | 2.66
EASNCFAIRHFENKFAVETLICGKESNNTFEVRW | inactive
EASNCFAIRHFENKFAVETLICGSTRGVLLRIKG | inactive
EASNCFAIRHFENKFAVETLICRKLTCISRAWFM | inactive
EASNCFAIRHFENKFAVETLICIVYDNPRRIMF | inactive
EASNCFAIRHFENKFAVETLICCKLWR | 7.2

Same assay, conditions: random library (experiment): 3

Sequence | amyloid nucleation score
EASNCFAIRHFENKFAVETLICGCTMRRMLATSW | inactive
EASNCFAIRHFENKFAVETLICYACKNTGNCSLS | 8.81
EASNCFAIRHFENKFAVETLICLCVERRRMGRLW | 4.82
EASNCFAIRHFENKFAVETLICVRLWSRGLPRDG | 3.59
EASNCFAIRHFENKFAVETLICDYG | inactive
EASNCFAIRHFENKFAVETLICINELV | inactive
EASNCFAIRHFENKFAVETLICWMYVVTIRSLHA | inactive
EASNCFAIRHFENKFAVETLICCNGVHCTMPLYR | 5.5
EASNCFAIRHFENKFAVETLICVNGGDAREWLNR | 7.34
EASNCFAIRHFENKFAVETLICGLTGATSISVSR | 5.26
EASNCFAIRHFENKFAVETLICNLMRDDRLLPKG | inactive
EASNCFAIRHFENKFAVETLICHVPCQSSDWFCC | 7.43
EASNCFAIRHFENKFAVETLICVCPFLGHLCILE | 1.52
EASNCFAIRHFENKFAVETLICRWNTGSVIFGAW | inactive
EASNCFAIRHFENKFAVETLICLALLTDGHMSGW | 0.475
EASNCFAIRHFENKFAVETLICWCVVQDELCINR | 5.35
EASNCFAIRHFENKFAVETLICRCPYAHRDQRWW | 5.19
EASNCFAIRHFENKFAVETLICAGAISEWYIVRR | inactive
EASNCFAIRHFENKFAVETLICAQPRTV | inactive
EASNCFAIRHFENKFAVETLICVWGGLEELRYRR | 6.75
EASNCFAIRHFENKFAVETLICNLSVYSPVGIRA | inactive
EASNCFAIRHFENKFAVETLICRYLTHDPVCRTR | inactive
EASNCFAIRHFENKFAVETLICGLLVSRWRGSWG | inactive
EASNCFAIRHFENKFAVETLICCTRGSQWHDRGN | 6.49
EASNCFAIRHFENKFAVETLICMVAIYVGAMRG | inactive
EASNCFAIRHFENKFAVETLICCKLSWCSRIVEG | 7.19
EASNCFAIRHFENKFAVETLICRMAWFKDMDV | 4.13
EASNCFAIRHFENKFAVETLICFTAARSLVGSRA | inactive
EASNCFAIRHFENKFAVETLICGLTLV | inactive
EASNCFAIRHFENKFAVETLICPFVTGTLEYWHC | 7.28

— the supplement of paper PMC12067230
